Measured values: the supplement of paper PMC4723716
The full ranking holds about 3,600 compounds; the median of “viability index relative to DMSO control” is about 0.81, and the lowest 2% start at about 0.13. This is one part of the list.

Each compound was assayed on Plasmodium falciparum NF54 stage V gametocytes (assay: viability index relative to DMSO control (fraction); higher = less gametocyte killing). Settings: 1.25 µM, incubation time: 72 h.
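Also: 384-well serum-free SaLSSA: MitoTracker Red CMXRos staining with saponin lysis, high-content imaging, treated-well particle count divided by plate-mean count of DMSO wells.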

SMILES	viability index
COc1ccc(C2CC(=O)C3=C(C2)NC(C)=C(C(=O)OC2CCCCC2)C3c2cccc(C)c2)cc1OC (configuration not stated)	0.873
Cc1ccc(-c2nn(CC(=O)Nc3ccc(OC(F)(F)F)cc3)c(=O)c3ccccc23)cc1S(=O)(=O)N1CCCCC1	1.1
Fc1cc(F)c(C2SCCN2C(=S)Nc2cccc(C(F)(F)F)c2)c(F)c1 (configuration not stated)	0.526
Clc1cccc(CSc2nc(Nc3ccc4c(c3)OCO4)c3ccccc3n2)c1	0.813
CCOc1ccc(NC(=O)c2ccc(F)c(S(=O)(=O)NC3CCCC(C)C3C)c2)cc1 (configuration not stated)	0.801
CN1C(=Cc2cccc[n+]2C)Sc2ccccc21	1.07
COc1ccc(-c2cc(=O)c3c(O)cc(OC4OC(COC5OC(C)C(O)C(O)C5O)C(O)C(O)C4O)cc3o2)cc1 (configuration not stated)	0.931
O=C(C=Cc1cccnc1)C12CC3CC(CC(C3)C1)C2	0.552
CN1CCN(Cc2c(O)ccc3c(=O)c(Oc4ccc(C(C)(C)C)cc4)c(C(F)(F)F)oc23)CC1	0.475
Cc1n(C)c2ccccc2[n+]1CC(=O)c1ccccc1	0.785
CCOC(=O)C1=C(C)NC2=C(C(=O)CC(c3ccc(OC)c(OC)c3)C2)C1c1c(F)cccc1Cl (configuration not stated)	0.484
COc1ccccc1C(=O)ON=C(N)Cc1cccc2ccccc12	0.731
CC(=O)Nc1ccccc1OC(F)(F)F	1.41
CC(C)(C)C1=NN(CC(=O)Nc2ccc3c(c2)OCO3)C(=O)c2cc3ccccc3n2C1	0.631
Cc1ccc2[nH]c3c(NCCc4ccccc4F)ncnc3c2c1	0.731
CCC1=NN2C(=N)/C(=C/c3cn(CCOc4cccc(C)c4)c4ccccc34)C(=O)N=C2S1	0.936
O=C(c1ccncc1)N1CCN(Cc2ccc3c(c2)OCO3)CC1	1.23
Cc1cc(N2CCCC2)nc2ccc(NC(=S)NCCCN3CCN(Cc4ccccc4)CC3)cc12	1.06
Cc1cc(C)c(C(Nc2ccccn2)c2ccc3cccnc3c2O)c(C)c1 (configuration not stated)	0.896

SMILES	viability index
Cc1cc(C)cc(OCC(=O)N2N=C(C(C)C)CC2(O)C(F)(F)F)c1 (configuration not stated)	0.799
CCCN1CCC(N2C[C@@H](NCCC3=C(C)CCCC3(C)C)C[C@H]2C(=O)NCC)CC1	0.74
CCCN1CCc2c(sc3nc(SCC(=O)c4ccccc4)nc(N)c23)C1	1.22
CCc1ccc(NC(=O)CSc2nc(C)cc(C)c2C#N)cc1	0.993
O=C1CC(c2nc3ccccc3n2CCCOc2ccccc2)CN1c1ccc(F)cc1 (configuration not stated)	0.888
COc1cc2c(cc1C=C(C#N)c1cccc(C)c1)OCO2	0.71
CN(C)c1ccc(C=C2SC(=Nc3ccc(O)cc3)NC2=O)cc1	0.727
O=c1cc[nH]c2cc(N3CCCCCC3)c(F)cc12	0.755
OC1=C2C(=Nc3ccccc3SC2c2cccs2)c2ccccc21 (configuration not stated)	0.888
CCOC(=O)C1=C(C)NC2=C(C(=O)CC(c3ccc(OC)cc3)C2)C1c1cccs1 (configuration not stated)	1.12
COc1cc(C(=O)NC2CC3CCC(C2)N3C2CC2)cc(OC)c1OC (configuration not stated)	0.837
Cc1cc(Nc2cccc(C(F)(F)F)c2)nc(N)n1	0.804
CCCCCc1ccc(OCCOCC[n+]2ccccc2)c(CCCCC)c1	0.713
CC(C)(C)c1csc(NC(=O)c2ccc(S(=O)(=O)N3CCCCC3)cc2)n1	0.57
Cc1cccc(C)c1-n1c(SCc2cccc(F)c2)nc2c(sc(=S)n2-c2c(C)cccc2C)c1=O	0.843
CC(C)CN1C(=O)c2ccccc2C(C(=O)Nc2ccc(F)c(Cl)c2)C1c1cccs1 (configuration not stated)	0.237
Nc1cc(-c2cccs2)n[nH]1	1.23
Cc1ccccc1-c1cnnc(NCC2CCCCO2)n1 (configuration not stated)	0.933
CCC(CO)NCC(O)Cn1c2ccc(Cl)cc2c2cc(Cl)ccc21 (configuration not stated)	0.322

SMILES	viability index
O=C(COC(=O)c1c2c(nc3ccccc13)CCCCCCCCCC2)c1ccc(Cl)cc1	0.933
CCOC(=O)C1CCN(C(c2cc3cc(OC)c(OC)cc3[nH]c2=O)c2nnnn2C(C)(C)C)CC1 (configuration not stated)	0.778
Cc1cccc(C(=O)NCc2n[nH]c(=S)n2-c2cccc(C(F)(F)F)c2)c1	0.811
CC(=O)N(Cc1ccc2c(c1)OCO2)C1CC(=O)N(c2ccccc2)C1=O (configuration not stated)	0.9
CCCN(CCC)S(=O)(=O)c1cc(Br)cc2c1N(C(=O)C1CC1)CC2	0.972
FC(F)(F)c1cccc(CNC2CCN(CCc3ccccc3)CC2)c1	1.01
COc1cccc(CC2(CO)CCCN(Cc3sc(N4CCCC4)nc3Cl)C2)c1 (configuration not stated)	1.12
CC(=O)Nc1ccc(-c2nc3c4ccccc4c4ccc(I)cc4c3[nH]2)cc1	0.762
CCOc1cc(C2CC(=O)NC3=C2C(=O)CC(c2ccc(OC)c(OC)c2)C3)ccc1O (configuration not stated)	0.574
CCOc1ccc(N(CC)S(=O)(=O)c2cc(Br)cc3c2N(C(C)=O)CC3)cc1	0.69
OC(CNCc1ccco1)Cn1c2ccc(Cl)cc2c2cc(Cl)ccc21 (configuration not stated)	0.698
O=C(NCCC1=CCCCC1)c1ccc2c(=O)n(-c3ccccc3)c(SCc3nc4ccccc4[nH]3)nc2c1	0.477
CCOC(=O)c1cc(-c2ccc(OC)cc2)n(CCC(=O)Nc2cccc(C(C)=O)c2)c1C	0.992
CCCN(C(=O)C(=O)Nc1ccc2nc3n(c(=O)c2c1)CCCCC3)c1ccc(OCC)cc1	0.353
O=C(Nc1ccc(Oc2cccc(Oc3ccc(NC(=O)c4ccc(Br)o4)cc3)c2)cc1)c1ccc(Br)o1	0.822
O=C(NCc1ccco1)C1CCN(S(=O)(=O)c2ccc(Br)cc2)CC1	1.03
COc1cc(C=C2SC(=Nc3ccccc3)NC2=O)ccc1OCc1ccccc1Cl	0.777
CC[n+]1c(C=C2C=C(C)CC(C)C2)sc2ccccc21 (configuration not stated)	0.696
CCCc1ccc(OCCNC(=O)CCNC(=O)Nc2cccc(Cl)c2)cc1	0.804
